One may read the % Inhibition as the relative decrease from the control value, in per cent.

The campaign covered roughly 150,000 compounds. About 540 (0.36%) showed an effect of 50% or more. This is one part of the list.

The assay concerns Plasmodium falciparum. Briefly: Primary screen in NF54 nanoGlo assay, in single point, at 2uM, 72h; a lower Z score goes with more inhibition. Type of assay: functional, Erythrocyte. The conditions noted are these: timepoint 72 hour.
With `COC(=O)C(NCc1cnc(C)s1)C(C)O` (centres undefined), the “% Inhibition” value came to 38% and the Z score is given as -1.02.

In the case of `O=S(=O)(c1ccc2[nH]cnc2c1)N1C[C@@H]2CC[C@H]1CN(Cc1ccccc1)C2`, the “% Inhibition” value is on record as -10% and the Z score was determined as 1.29.

As to `ClC1(Cl)C[C@@H]1Cn1c(C2CC2)nc2ccccc21`, the “% Inhibition” value was found to be 3% and the Z score was -0.48.

Turning to `COc1cnc(NC(=O)NC2CCS(=O)(=O)CC2)s1`, the “% Inhibition” value stood at 0% and the Z score is on record as -0.04.

Take `O=C1C[C@@H](c2ccccc2)N(C(=O)c2cccc3cc[nH]c23)CCN1`: the “% Inhibition” value was -9% and the Z score came out at 1.

Turning to `CC(C)[C@H]1CCCN(C(=O)CCc2cncs2)CC1`, the “% Inhibition” value is recorded as -11% and the Z score was 1.52.

For the compound `Cc1cc(-c2ccc(C(=O)N(CC3CC3)C[C@H]3CCCO3)cc2)nc(C)c1C#N`, the “% Inhibition” value is on record as -8% and the Z score worked out at 0.96.

On to `N#Cc1ccccc1C(=O)N1C[C@@H]2CC[C@H]1CN(C(=O)c1cnccn1)C2`, for which the “% Inhibition” value is given as 1% and the Z score is -0.24.

In the case of `CN(C)C(=O)[C@@H]1CCCN1c1ccc2ccc(F)cc2n1`, the “% Inhibition” value was -5% and the Z score was determined as 0.75.

`Cc1cc(CN2CCCC[C@H]2c2ncc[nH]2)no1`: the “% Inhibition” value is given as -8% and the Z score was 1.22.

With `CCc1[nH]c2c(CNC(=O)c3ncccc3OC)cc(F)cc2c1C`, the “% Inhibition” value was -3% and the Z score came out at 0.28.

Turning to `COc1ccccc1C(O)CNC(=O)[C@H](O)c1ccccc1Cl` (some centres undefined), the “% Inhibition” value is listed as -7% and the Z score was found to be 0.89.

As to `CC(C)N(CCO)C(=O)Nc1cccnc1`, the “% Inhibition” value is 3% and the Z score is -0.41.

With `O=C(c1ccc2nc(-c3ccccc3)cn2c1)N1C[C@H]2CCC[C@@]2(CO)C1`, the “% Inhibition” value is on record as 7% and the Z score is -0.94.

With `COc1ccc(CCNC(=O)c2c(O)c3cc(F)cc4c3n(c2=O)[C@@H](C)CC4)cc1OC`, the “% Inhibition” value is reported as -4% and the Z score turned out to be 0.36.

Take `CN(c1ccccc1)c1nc(N2CCCCC2)nc(-n2ccnc2)n1`: the “% Inhibition” value is listed as -1% and the Z score worked out at 0.1.

With `CC1(C(=O)N2CCCC(CCC(=O)O)C2)CC1(F)F` (centres undefined), the “% Inhibition” value was found to be 6% and the Z score is on record as -0.81.

Take `O=S(=O)(c1ccccc1)N1CCC(OCCOc2cccnc2)CC1`: the “% Inhibition” value was -7% and the Z score was 1.14.

Consider `Cc1nn(C)c(N(C)C)c1CN[C@@H](CC(C)C)C(=O)N(C)C`, for which the “% Inhibition” value was -8% and the Z score came out at 1.05.

Take `Cc1cc(Cl)ccc1OCC(=O)N1CCN(c2nc3ccncc3n(C)c2=O)CC1`: the “% Inhibition” value is recorded as -4% and the Z score amounted to 0.42.

Regarding `Cc1cc(C(=O)Nc2ccc3ccccc3c2)co1`, the “% Inhibition” value amounted to 37% and the Z score is -4.78.

For `Cc1ncccc1CNCCn1cccn1`, the “% Inhibition” value is recorded as -9% and the Z score was 0.91.

With `C[C@H](Nc1ccn(CC(F)F)n1)C1CCN(C)CC1`, the “% Inhibition” value was -5% and the Z score was determined as 0.81.

Regarding `CC(C)[C@H]1CC[C@H](C(=O)N[C@@H](Cc2ccccc2)C(=O)Nc2cnn(C)c2)CC1`, the “% Inhibition” value is -10% and the Z score came to 1.26.

As to `CCN(CC)CCn1cnc2c1c(=O)[nH]c(=O)n2Cc1ccccc1`, the “% Inhibition” value is -1% and the Z score is on record as 0.09.

Turning to `FC1(F)CC12CCC(Nc1nccn3cncc13)CC2` (centres undefined), the “% Inhibition” value was -5% and the Z score came to 0.74.

Turning to `Cc1cncc(C(=O)N2CCCC[C@@]2(C)c2noc(C3CC3)n2)c1`, the “% Inhibition” value is on record as -15% and the Z score turned out to be 1.98.

In the case of `CN(c1ccn(C)n1)S(=O)(=O)CC1(C(=O)OC(C)(C)C)COC1`, the “% Inhibition” value is on record as -7% and the Z score is 1.31.

In the case of `Cc1c(C(=O)NCCc2ccc(Cl)cc2)cccc1-n1cnc2cccnc21`, the “% Inhibition” value was -5% and the Z score is recorded as 0.76.

In the case of `N#Cc1cccnc1N1CCC[C@H](CN2CCCCCC2)C1`, the “% Inhibition” value was -3% and the Z score was 0.28.

In the case of `O=C1CN(Cc2ccccc2)C(=O)[C@H](Cc2ccc(O)cc2)N1`, the “% Inhibition” value is reported as -7% and the Z score was found to be 1.38.

In the case of `CC(C)(C#N)C(=O)NCC1(c2ccccc2)CC1`, the “% Inhibition” value was -2% and the Z score is 0.19.

For the compound `CC(C)NC(=O)NC[C@H]1Cn2c(-c3ccc(Cl)cc3)cnc2CO1`, the “% Inhibition” value stood at 29% and the Z score is listed as -3.28.

With `O=C(NCCn1ccnc1-c1ccc2c(c1)OCO2)c1cccnc1`, the “% Inhibition” value was found to be 10% and the Z score is on record as -1.94.

With `CC1CCN(C(=O)c2ccc(NCCCS(C)(=O)=O)nc2)CC1`, the “% Inhibition” value is on record as -14% and the Z score was 2.31.

In the case of `C[C@@]1(C(=O)NC2CCCC2)Cn2c(ccc2-c2ccco2)C(=O)N1Cc1ccco1`, the “% Inhibition” value was -12% and the Z score was determined as 1.11.

Take `Cc1nc(-c2cc(S(=O)(=O)N(C)C3CCCCC3)c(C)n2C)sc1C(=O)N1CCOCC1`: the “% Inhibition” value is reported as -7% and the Z score is 0.8.

Regarding `Cc1cc(Cl)ccc1OCC(=O)Nc1[nH]ncc1-c1ccc2c(c1)OCO2`, the “% Inhibition” value is on record as -6% and the Z score was 1.03.

Consider `COc1ccc(C(=O)N2CCCN(CC3CC3)[C@H](C(C)C)C2)c(O)c1`, for which the “% Inhibition” value is listed as -10% and the Z score was 1.22.

On to `COc1ccc(OCC(F)(F)C(F)F)c(C(=O)N(C)C)c1`, for which the “% Inhibition” value was 11% and the Z score is -1.57.

As to `CCC1(CC)O[C@@H](c2ccc(OC)c(OC)c2OC)Nc2ccccc21`, the “% Inhibition” value is recorded as 10% and the Z score is recorded as -1.23.

With `C[C@H](Oc1ccc(N(C)C(N)=O)cc1)c1cccc(C#N)c1`, the “% Inhibition” value was -7% and the Z score came out at 0.95.

(Values after ChEMBL document CHEMBL4888484, “Replenishing the malaria drug discovery pipeline: Screening and hit evaluation of the MMV Hit Generation Library 1 (HGL1) against asexual blood stage Plasmodium falciparum ,using a nano luciferase reporter read-out” (2022).)
